Assay results published in PubChem BioAssay AID1477 (National Center for Advancing Translational Sciences (NCATS), 2009).
Out of some 230,000 compounds screened, fewer than 10 were called active. The shares of active, inactive and inconclusive entries below differ from those in the screen. The call rests on the fitted dose curve; in most records, active means well fitted curve in the direction sought with a large enough effect; inconclusive means small, poorly fitted or top-dose-only effect, or effect the other way, or another doubt; inactive means no such curve, though single readings can be large or run the other way. Potencies of inconclusive entries are left out as doubtful fits.

Biological target: Runt-related transcription factor 1 (Homo sapiens) + Core-binding factor subunit beta (Homo sapiens) (UniProt Q01196+Q13951)
Assay: qHTS Assay for Compounds Blocking the Interaction Between CBF-beta and RUNX1 for the Treatment of Acute Myeloid Leukemia; on activity, negative = inhibition: % of control where 0% means no effect
Conditions: AlphaScreen CBFb-His/RUNX1-biotin binding, biochemical; activity, negative = inhibition: at 59.8 µM (top of the series) unless noted
Method in brief: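 AlphaScreen binding: CBFb-His and RUNX1-biotin (30 nM each) preincubated 20 min, compound added for 15 min, then nickel and streptavidin beads for 90 min, all at room temperature. Disruption of the interaction by any mechanism counts as activity.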

UniProt Q01196, sequence (Q01196 whole entry, looked up): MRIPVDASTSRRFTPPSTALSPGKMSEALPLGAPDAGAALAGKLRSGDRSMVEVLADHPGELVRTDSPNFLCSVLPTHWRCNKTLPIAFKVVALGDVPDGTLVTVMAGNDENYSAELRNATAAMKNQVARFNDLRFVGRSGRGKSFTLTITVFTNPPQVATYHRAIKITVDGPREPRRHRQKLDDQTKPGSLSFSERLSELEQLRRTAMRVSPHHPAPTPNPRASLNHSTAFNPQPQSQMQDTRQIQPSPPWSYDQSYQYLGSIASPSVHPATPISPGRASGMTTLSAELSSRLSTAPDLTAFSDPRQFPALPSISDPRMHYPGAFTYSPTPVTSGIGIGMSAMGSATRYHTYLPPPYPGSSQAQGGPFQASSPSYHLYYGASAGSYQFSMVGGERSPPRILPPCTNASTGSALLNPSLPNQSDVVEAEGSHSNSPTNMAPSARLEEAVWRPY
UniProt Q01196, sequence (Q13951 whole entry, looked up): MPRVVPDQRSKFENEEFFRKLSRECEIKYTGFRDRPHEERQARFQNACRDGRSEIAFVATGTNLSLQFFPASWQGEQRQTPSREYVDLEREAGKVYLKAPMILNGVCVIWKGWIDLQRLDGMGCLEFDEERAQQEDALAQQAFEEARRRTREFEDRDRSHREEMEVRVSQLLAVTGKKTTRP

SMILES	Potency	activity, negative = inhibition
Cc1cccc(-n2nc(C(=O)c3ccco3)cc(-c3nc4ccccc4[nH]3)c2=N)c1	inconclusive [inhibitor, partial curve]	–
Clc1ccc(CSc2nnnn2-c2ccc3c(c2)OCO3)c(Cl)c1	inconclusive [activator, partial curve]	–
COc1ccc(C(=O)NC(=S)NNC(=O)c2ccc(NC(=O)C(C)C)cc2)cc1	inconclusive [inhibitor, partial curve]	–
COc1ccc(-c2n[nH]c(=S)n2/N=C/C=C/c2ccccc2OC)cc1	inconclusive [activator, single point]	–
C=C1C(=O)O[C@H]2[C@H]1[C@H](OC(=O)CC(=O)O[C@@H]1C[C@@H](C)[C@@H]3C=CC(=O)[C@@]3(C)[C@H]3OC(=O)C(=C)[C@H]13)C[C@@H](C)[C@H]1C=CC(=O)[C@]12C	–	inactive: 2.31%
Cc1cc2cc(CNC(=O)c3ccc(S(=O)(=O)N4CCCC4)cc3)ccc2n1C	inconclusive [inhibitor, single point]	–
CCn1cc(C(=O)O)c(=O)c2cc(F)c(N/N=C/c3ccccc3)cc21	inconclusive [activator, single point]	–
CN(C)CCCNc1c2c(c(C#N)c3nc4ccccc4n13)CCC2	inconclusive [inhibitor, single point]	–
O=C(COc1ccccc1)N1CCN(c2ncccn2)CC1	inconclusive [inhibitor, single point]	–
COc1ccc(Nc2nc(C(=O)N(CCO)Cc3ccccc3)cs2)cc1	–	inactive: -12.8%
N#CCCn1cc(C=C2C(=O)NC(=O)NC2=O)c(-c2ccccc2)n1	–	inactive: 4.85%
O=C(O)CCCCCNC(=O)c1cccc(Br)c1	–	inactive: 2.02%
Cc1ccc(OCCNC(=O)c2cccc(Oc3ccc(C(F)(F)F)cc3[N+](=O)[O-])c2)cc1	inconclusive [activator, partial curve]	–
CCn1c(-c2cccn(Cc3ccc(Cl)cc3Cl)c2=O)n[nH]c1=S	inconclusive [activator, partial curve]	–
CCCCC1=CC2=C(c3ccco3)C(=O)C(C)(OC(=O)c3ccc(OC)cc3)C(=O)C2=CN1Cc1ccccc1 (stereo not drawn)	inconclusive [inhibitor, single point]	–
N#Cc1ccc(C(=O)Nc2ccc([N+](=O)[O-])cc2)c(F)c1	–	inactive: -6.23%
O=C(NC(NC(=S)N1CCOCC1)C(Cl)(Cl)Cl)c1cccc2ccccc12 (stereo not drawn)	–	inactive: 11.9%
COc1ccc(/C=C/C(=O)NC(=S)NNC(=O)c2cccs2)cc1	inconclusive [inhibitor, single point]	–
CC1CCN(CC(=O)Nc2sc3c(c2C#N)CCC3)CC1	–	inactive: 7.04%
O=Nc1c(-c2c(O)[nH]c3ccccc23)[nH]c2ccccc12	inconclusive [inhibitor, single point]	–
NC(=O)N/N=C\c1cc(Br)ccc1O	inconclusive [inhibitor, single point]	–
Cc1coc2c1CCC(C)C2 (stereo not drawn)	–	inactive: 7.02% [at 21.7 µM]
Cc1ccc(/C=C/C(=O)N2CCN(S(=O)(=O)/C=C/c3ccccc3)CC2)o1	inconclusive [inhibitor, single point]	–

SMILES	Potency	activity, negative = inhibition
Cc1cc2cc(CN(Cc3cccs3)C(=S)NCc3ccco3)c(=O)[nH]c2cc1C	–	inactive: -20.4%
Cc1ccc(S(=O)(=O)N2CCC(C(=O)Nc3nnc(COc4ccccc4)s3)CC2)cc1	inconclusive [inhibitor, single point]	–
COc1ccc2c(CC(=O)OCC(=O)Nc3cc(C)c(C)cc3[N+](=O)[O-])coc2c1	inconclusive [inhibitor, partial curve]	–
Cc1ccc2[nH]c(=O)c(-c3nc4cc(C)ccn4c3NCc3ccco3)cc2c1	inconclusive [inhibitor, single point]	–
N#Cc1c(N)nc(SCc2ccncc2)c(C#N)c1-c1cccs1	–	inactive: 1.55%
COc1ccc(Nc2nnc(SCc3cc(=O)n4ccsc4n3)s2)cc1	inconclusive [inhibitor, single point]	–
O=C(Nc1nnc(C2CC2)o1)c1ccc(S(=O)(=O)N2CCCc3ccccc32)cc1	inconclusive [inhibitor, single point]	–
COC(=O)c1ccc(N2CCCCC2)c(NS(=O)(=O)c2ccc(C)cc2)c1	–	inactive: 3.59%
O=C(NC(NC(=S)Nc1ccccc1)C(Cl)(Cl)Cl)c1cccc(Cl)c1 (stereo not drawn)	–	inactive: -0.152%
On1c(-c2ccccc2Cl)nc2ccccc21	inconclusive [activator, partial curve, poor fit]	–
Cc1ccc(/C=C2\SC(=S)N(Cc3ccccc3)C2=O)o1	inconclusive [inhibitor, single point]	–
COCCN1CCN(c2cc(-c3ccccc3)nc3cc(-c4cccc(F)c4)nn23)CC1	inconclusive [activator, partial curve]	–
O=C(CNC(=O)c1ccccc1)NC1(C(=O)NC2CCCCC2)CCCCC1	–	inactive: 0.994%
CC(=O)[O-].CC(=O)[O-].O.O.[Cd+2]	inconclusive [inhibitor, full curve]	–
O=C1OCCN1C(=O)[C@H]1[C@H](c2ccc(Cl)cc2)C(c2cccc(Cl)c2)=NN1c1ccccc1	inconclusive [activator, partial curve]	–
COc1cc([N+](=O)[O-])cc(/C=N/NC(=O)Cn2nccc2C)c1O	inconclusive [inhibitor, single point]	–
O=c1c2c3c(sc2[nH]c(=S)n1Cc1ccco1)CCC3	inconclusive [inhibitor, single point]	–
CCCC[C@@H]1C[C@H]1C(NC(=O)c1cccs1)c1ccc(Cl)cc1 (stereo partly drawn)	inconclusive [activator, single point]	–
Cc1ccc(N2CCN(c3ccc(NCc4nc5ccccc5n4C)cc3)CC2)cc1	inconclusive [inhibitor, single point]	–
COc1ccccc1/C=N/NC(=O)CNC(=O)c1ccc(S(=O)(=O)N(C)C)cc1	inconclusive [activator, single point]	–
FCCCOc1ccc(-c2ccnc(-c3ccccc3)n2)cc1	inconclusive [activator, single point]	–
Cc1cccc(NC(=S)NC(=O)CC2CC(C)(C)OC2=O)c1 (stereo not drawn)	–	inactive: 3.82%
Cc1ccc(C)c(NC(=S)c2nc3ccccc3s2)c1	inconclusive [inhibitor, single point]	–

SMILES	Potency	activity, negative = inhibition
COc1ccccc1C/C(N)=N/OC(=O)c1cccc([N+](=O)[O-])c1	–	inactive: 5.23%
C=CC[N+](C)(C)CCCNC(=O)/C=N/O	inconclusive [activator, partial curve]	–
CC(C)CNS(=O)(=O)c1ccc(CCC(=O)N2CCN(Cc3ccc4c(c3)OCO4)CC2)cc1	inconclusive [inhibitor, partial curve]	–
O=C(Nn1c(O)c(C=C2N=c3ccccc3=N2)sc1=S)c1ccc(Cl)cc1	inconclusive [inhibitor, single point]	–
Cn1ncnc2c(=O)n(C)c(=O)nc1-2	inconclusive [inhibitor, full curve]	–
Cc1ccc(-n2c(C3CC3c3ccc(Cl)cc3)n[nH]c2=S)cc1 (stereo not drawn)	–	inactive: 0.64%
Cc1ccc(-c2c(C#N)c(N)n3c(nc4ccccc43)c2C#N)cc1	inconclusive [activator, partial curve]	–
Cc1cc2ncc(C(=O)Nc3ccsc3C(=O)O)c(C)n2n1	inconclusive [activator, full curve]	–
O=c1sc(N2CCN(c3ccccc3F)CC2)nc2ccsc12	inconclusive [inhibitor, single point]	–
CSCC[C@H](NC(=O)[C@H](Cc1ccccc1)NC[C@@H](NC[C@@H](N)CS)C(C)C)C(=O)O	inconclusive [activator, partial curve]	–
Cc1cc(C)c2c(c1)NC(=O)C2(O)CC(=O)c1cccs1 (stereo not drawn)	–	inactive: 4.76%
COc1ccc(-n2cc(-c3ccc(Cl)cc3)[nH]c2=S)cc1	–	inactive: -1.03%
Cc1ncc([N+](=O)[O-])n1CCO	inactive	–
COc1ccc(CCNc2cc(C)nc3c(-c4ccc(Cl)cc4)cnn23)cc1OC	inconclusive [activator, single point]	–
O=C(NCCc1c[nH]c2ccccc12)c1cncc(Br)c1	inconclusive [activator, partial curve, poor fit]	–
COc1ccc(-c2ccc(C#N)c(SCC(=O)OCc3ccccc3)n2)cc1OC	inconclusive [activator, partial curve]	–
O=C(NCc1ccccc1)c1onc(CSc2ccc(Cl)cc2)c1C(=O)NCc1ccccc1	inconclusive [activator, partial curve]	–
COC(=O)COc1ccc(NC(=O)Cn2nc(-c3ccccc3)c3ccccc3c2=O)cc1	–	inactive: 1.63%
O=C1NC(=O)N(CCc2ccc(F)cc2)C(=O)/C1=C/c1ccco1	inconclusive [inhibitor, partial curve]	–
Cc1ccc(OCCSc2nc(NC(C)C)nc(NC(C)C)n2)cc1	inconclusive [activator, single point]	–
CNc1nccc(-c2ccc(F)cc2)c1C#N	inconclusive [activator, full curve, poor fit]	–
C/C=C1/C[C@@H](C)[C@](O)(CO)C(=O)OCC2=CCN3CC[C@@H](OC1=O)C23 (stereo partly drawn)	inconclusive [inhibitor, single point]	–
